Experimental data taken from the supplement of paper PMC11417369.
The list shows a part of the results.

The sequences below were run on PfSIP2 AP2 domain 1 (GST-tagged) (assay: gcPBM binding intensity (ln(normalized median fluorescence intensity)); higher = stronger DNA binding).
In short: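 Each value is the highest Masliner-normalised natural-log median intensity across replicate spots of either orientation of a probe. The probes were primer-extended double-stranded 36-bp intergenic genomic sequences on an Agilent 4 × 180k array, alongside negative controls, exposed for 1 h to GST-tagged P. falciparum DNA-binding domains expressed in E. coli. Bound protein was picked up with Alexa488 anti-GST antibody and scanned at 488 nm.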

| Sequence | gcPBM binding intensity (ln) |
| --- | --- |
| GCCAAAATCTAATTTACACACTTATTAAATAATTAC [CACACA_site6251] | 7.14 |
| GACATAGTCATATACTGTACTTTATATTATTGTGTA [XGTACX_site6636] | 7.11 |
| TTTTTTTTCATTGGTTGTACAATATTTATAATTCAC [XGTACX_site7036] | 7.24 |
| TACAGATATAAACACACACACATATATATATATATA [CACACA_site4846] | 9.51 |
| TTTTTTTTTTTTTTTTGTACTTATAAAAAATTTTTT [XGTACX_site1249] | 6.99 |
| ATGTAATATTTACAACGTACAAATTATAAACATATT [XGTACX_site603] | 6.93 |
| TCATATTGGCTGTTCTGTACTTATAAGTTTTAAAGA [XGTACX_site5593] | 7.36 |
| TTTGTTAATATAAAAACACACAAAAATAACATAAAA [CACACA_site2619] | 7.08 |
| AAGGGAAAAAAAAAAGCACACATACGTAAATATATA [CACACA_site7960] | 6.92 |
| AAAAGATAAAATTATGCACACATACGAATAATTTTA [CACACA_site8497] | 7.1 |
| TATTTCACACAGTATATATATATATATATATATATA [TGCATGCA_negctrl_site118] | 9.5 |
| ATCTGACAAAAGTGTACACATATATATATATATATA [CACACA_site4814] | 9.49 |
| AAATGGGAAATTTCATGTACTCATTTACCCTTATTA [XGTACX_site4740] | 6.51 |
| CACATAATGAAAAATACACACATGTATATTTATAAA [CACACA_site2736] | 6.75 |
| GTTAATTTTTGTATAGTGCAAAAATATAATAGTATG | 8.85 |
| TGTTGGTATGTGAATGCATGCATATAAGTCTATCTG [TGCATGCA_site780] | 7 |
| TTGAAGTATAATAAAGTGCAAAATTATAATGATCTT [GTGCAC_site9639] | 7.94 |
| TGGATATATGTAAAAATTGCAAGAAAGATAAAAGGA [CACACA_negctrl_site64] | 7.68 |
| ATTATGATATATATATGTACATATATATAATATAAT [XGTACX_site259] | 7.05 |

| Sequence | gcPBM binding intensity (ln) |
| --- | --- |
| TCTATGAATTAATATGCATGTAACGTATTTATACTT [TGCATGCA_site669] | 6.9 |
| AAAAAAAAAAAAAGTGCACACTTTTAATATAAATAT [CACACA_site3314] | 10.8 |
| TTTTTTTTTTTCCTTACACACATATTTCATTTTATA [CACACA_site747] | 6.94 |
| TTTTTATTTTTTAGTAGTACACACTTTTTGAACCTT [XGTACX_site1091] | 7.04 |
| TTTTATATATATTATACACACAAGGAAAAAAAAAAA [CACACA_site3677] | 6.95 |
| TATAAAAGGAAACACACACACATATATATATATATA [CACACA_site939] | 9.34 |
| TTATAATATAAAAAATGTACATTAAAAAAAAAGATT [XGTACX_site8950] | 7 |
| AAGTATCAAAAATAAAGTACATATTTTGTAGGCAGG [XGTACX_site1463] | 7.14 |
| CAAAAAATATATTTTTGTACTTATGTTTTTATTTTG [XGTACX_site5230] | 6.96 |
| TAGTATAATATGAACACACACACACCCACAAAAAAA [CACACA_site2009] | 7.18 |
| CTTGGTAGTTTTTTCTTATAATCTAATTATTAATAA [CACACA_negctrl_site153] | 7.27 |
| ATATATTAATATGTGTGTACTTAACCATTCATATGT [XGTACX_site7395] | 7.13 |
| TTAATATATAATAAATTTTTTTTTTTTTTTTTTTTT [CACACA_negctrl_site892] | 8.04 |
| TTAATATGAAAACTCTGTACCCAACCTTCTTATGGA [XGTACX_site2126] | 6.83 |
| TATATAAATATATAATGTACGTTTTAAAAATAATAT [XGTACX_site3881] | 7.35 |
| ATATAATAAATGTAGGTGCATAAAAATATTTTGTTA [GTGCAC_site9780] | 10 |
| TTAACCACTAAAAGTACACACATATATACCTATATA [CACACA_site6026] | 7.05 |
| TTTTAATAATATGGATGTACATAAAAATAAATAAAT [XGTACX_site7937] | 7.47 |
| TAGTATTATTTTTTTTGTACATATAAATGTAAAATA [XGTACX_site5282] | 7 |

| Sequence | gcPBM binding intensity (ln) |
| --- | --- |
| AAAACATAAATACATACACACATAATATATATTAAG [CACACA_site4239] | 7.05 |
| TTTTTTTAAAATATGAGTACATAATATTGTAAAAAT [XGTACX_site6536] | 6.82 |
| ATACATATACACATTTGTACATATTCCTTTTTATCG [XGTACX_site1731] | 7.02 |
| TTATTTAAAATGAAAAGTACATATTACTTTCTCACA [XGTACX_site5043] | 7.01 |
| TCTTGTTTTAATTTTTATATTATTATTTAGATATAT [CACACA_negctrl_site921] | 7.2 |
| TACTAAATGATCATATGTACACATGTTTACTTTTTA [XGTACX_site1253] | 7.01 |
| AATATATATATATATATATATATTTCAATATATAAA [XGTACX_negctrl_site187] | 7.79 |
| ATGATAATTATTAAGGGTACATAAAAATATATCTAT [XGTACX_site8969] | 7.05 |
| TATAATTATTTTTTCACACATATGTATTTATATATA [CACACA_site4205] | 7.09 |
| ATTATTTAACATGTGGACACAAAAATTTAAGGGTTC [CACACA_negctrl_site1269] | 7.25 |
| AGATATATATATAGGTGTACTGGAATGAAATTGTTT [XGTACX_site8200] | 6.94 |
| AATATATTAAATATTACACACATACATTTAGTGGAA [CACACA_site8609] | 6.92 |
| TACTAAGAAAAGAACTGTACATAGAATATACCCAAG [XGTACX_site4757] | 6.71 |
| AATATCAAAAAAAAAAAAAAAAAAAAAAAAAAAAAA [CACACA_negctrl_site288] | 6.99 |
| TAAATATAATCTAAATGTACATGACATAATTTTTTT [XGTACX_site2856] | 6.86 |
| TAAAATATTTTTTGTAGTACCTTAATATTTTTGAAG [XGTACX_site3048] | 6.92 |
| GTGTAATATGAAATGTGTACACACGCACACACAAAA [XGTACX_site6180] | 7.6 |
| AATAAATACTAAATGGTGCAAAATTTTTTAACACTG | 10.7 |
| TTTCAAAAATGAGTTACACACACACCGATATATATA [CACACA_site5263] | 7.49 |
